Patent publication US20220411514A1, “ANTI-GAL3 ANTIBODIES AND METHODS OF USE FOR INSULIN RESISTANCE” (TrueBinding, Inc., priority 2021, published 2022)

Key:
[1] = molecular target: T1, interaction of Gal3 and INSR (Homo sapiens, UniProt P17931); assay: Gal3-INSR blocking ELISA; type: binding; conditions: antibody 3 μg/mL
T1 construct: 6xHis (linker-spaced) (C); purchased Acro Biosystems (Gal3); Sino Biological (INSR) GA3-H5129; 11086-H08H
Protocol: Positively scoring wells were evaluated for the ability to block association of Gal3 and INSR. To identify Gal3-targeted antibodies with the ability to block the interaction of Gal3 and INSR, purified Gal3 and INSR proteins were incubated in the presence of Gal3-immunization hybridoma supernatants described above, or without antibody, and protein interaction was evaluated by ELISA. Human Galectin-3 protein (Acro Biosystems, GA3-H5129) was diluted in PBS (Corning, 21-030-CM) to a concentration of 3 μg/ml and added to the wells of a 96-well ELISA plate (Thermo Fisher, 44-2404-21). After incubating the plate at 4° C. overnight, the plate was washed three times with PBST (PBS with 0.05% Tween 20 [VWR, 0777]). The plate was then blocked for an hour with 2% BSA (EMD Millipore, 126609) in PBST at room temperature with gentle rocking. Thereafter, the 2% BSA in PBST was discarded and antibody or inhibitor (3-fold dilutions beginning at 20 μg/ml, 60 μg/ml, or 180 μM) in 2% BSA in PBST was added to the wells. Afterwards, 6 μg/ml of human Insulin Receptor (Sino Biological, 11086-H08H) in 2% BSA in PBST was added to the antibody or inhibitor in the wells in a 1:1 ratio. The plate was incubated for an hour at room temperature with gentle rocking. […] The reaction was stopped with 1M HCl (JT Baker, 5620-02) and read using a plate reader (Molecular Devices) at absorbance of 450 nm.

[2] = molecular target: T2, hGal3 peptide (Homo sapiens, UniProt P17931); assay: Gal3 peptide library binding ELISA (Example 2)
T2 construct: a library of 24 amino acid peptides representing portions of Gal3
Protocol: To identify the epitopes to which Gal3 antibodies with and without Gal3-INSR blocking activity bound, a library of 24 amino acid peptides representing portions of Gal3, depicted in FIG. 18, was produced and the ability of each peptide to bind Gal3 antibodies was evaluated by ELISA. At least 2 μg/ml of hGal3 peptide in 50 μl of PBS or 0.1 μg/ml of full-length human Gal3 protein (GenScript) and human Galectin-3 protein (Acro Biosystems, GA3-H5129) were diluted in PBS (Corning, 21-030-CM) to concentrations of at least 2 μg/ml or 0.1 μg/ml, respectively, and added to the wells of a 96-well ELISA plate (Thermo Fisher, 44-2404-21). After incubating the plate at 4° C. overnight, the plate was washed three times with PBST (PBS with 0.05% Tween 20 [VWR, 0777]). The plate was then blocked for an hour with 2% BSA (EMD Millipore, 126609) in PBST at room temperature with gentle rocking. Thereafter, the 2% BSA in PBST was discarded and human Galectin-3 hybridoma supernatants or antibodies were diluted in 2% BSA in PBST to concentrations of at least 0.1 μg/ml and added to the wells. The plate was incubated for an hour at room temperature with gentle rocking and then washed three times with PBST. Afterwards, Goat Anti-Mouse IgG-HRP (Jackson ImmunoResearch, 115-036-1461) or Goat Anti-Rat IgG HRP (Abcam, ab205720) diluted in 2% BSA in PBST (1:4000) were added to the wells. The plate was incubated for 30 minutes to 1 hour at room temperature with gentle rocking and then washed three times with PBST. TMB substrate (Thermo Scientific, 34029) was then added to each well. The reaction was stopped with 1M HCl (JT Baker, 5620-02) and read using a plate reader (Molecular Devices) at absorbance of 450 nm.

[3] = molecular target: T3, Human Gal3 peptides (Homo sapiens, UniProt P17931); assay: Gal3 peptide binding ELISA (Example 8); conditions: antibody 5 μg/mL
T3 construct: purchased LifeTein custom order
In short: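 Plates coated overnight at 4 °C with human Gal3 peptides (at least 100 μg/mL) or Gal3 protein (1 μg/mL) in PBS, then blocked with 2% BSA/PBST. Antibodies as hIgG4 (S228P) at 5 μg/mL, 1 h at room temperature. Detection by HRP anti-human IgG F(ab′)2 and TMB, absorbance at 450 nm.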

[4] = tested on: GLUT4 translocation in L6 GLUT4myc myoblasts; assay: Insulin-stimulated GLUT4 translocation with Gal3 and anti-Gal3 antibody; type: cell-based, rat; conditions: 30 μg/mL Gal3 pre-incubated with 60 μg/mL antibody, 100 nM insulin
Protocol: Rat L6 GLUT4myc myoblasts (Kerafast #ESK202-FP) express a Myc-tagged GLUT4 that can be detected with an anti-Myc antibody. These cells were grown in a 48-well plate in MEM u growth media (Gibco, #12-571-063)+10% fetal bovine serum (FBS; Corning #35-016-CV) until 90-95% confluence was reached. Cells were then washed in PBS and serum starved for 2 hours in MEM u growth media without FBS. Thirty (30) μg/mL recombinant human Gal3 (TrueBinding QCB200347) was pre-incubated with 60 μg/mL anti-Gal3 antibodies for 30 minutes before being added to the serum-starved cells for 1 hour at 37° C. At the end of incubation, half of the cells were treated with 100 nM insulin (Sigma-Aldrich #I5523-50MG) for 20 minutes while the other half acted as basal controls. After 20 minutes, cells were washed quickly with ice cold PBS twice, then incubated with 4% paraformaldehyde (Boster Bio #AR1068) for 10 minutes on ice followed by 10 minutes at room temperature. The cells were washed three times with PBS, then blocked with 0.5 mL 5% goat serum (Vector Laboratories #101098-382) in PBS for 15 minutes. After the blocking agent was aspirated from the cells, 1 μg/ml anti-Myc polyclonal antibody (Sigma-Aldrich #C-3956) in 5% goat serum was added for 1 hour. […] Primary antibody was aspirated away, and then cells washed 5 times with PBS. Next, cells (including background controls) were incubated with 1:1000 goat anti rabbit antibody secondary antibody (Abcam #Ab97051) in 5% Goat serum for 30 minutes at room temperature. After washing, cells were incubated with 400 μL of TMB (Thermo Scientific #PI34029) for 5 minutes, then 200 μL of 1N HCL (Avantor Performance #JT5620-2) was added to stop the reaction. 100 μL of the sample was transferred to a 96 well plate with duplicates transferred for each condition. Samples were read at 450 nm on a SpectraMax plate reader. […] The fold changes were plotted on GraphPad Prism and presented as mean (SEM) of the technical replicates. Statistical significance was determined using unpaired T-tests comparing samples treated with Gal3 and insulin with all other conditions.

[5] = molecular target: interaction between Gal3 and GLUT1 (Homo sapiens, UniProt P17931); assay: Gal3-GLUT1 blocking ELISA; type: binding; conditions: antibody 3-fold dilutions
Sequence of interaction between Gal3 and GLUT1 (P17931 whole entry): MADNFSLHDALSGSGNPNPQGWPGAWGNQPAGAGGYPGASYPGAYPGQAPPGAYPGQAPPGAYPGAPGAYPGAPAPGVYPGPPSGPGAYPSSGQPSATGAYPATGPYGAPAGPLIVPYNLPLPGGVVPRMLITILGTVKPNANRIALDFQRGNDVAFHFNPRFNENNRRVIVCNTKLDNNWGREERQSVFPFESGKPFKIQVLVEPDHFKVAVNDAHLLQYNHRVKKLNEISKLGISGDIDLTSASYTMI
Protocol: (§1) Human Gal3 protein was diluted in PBS to a concentration of 2 μg/mL and used to coat a 96-well ELISA plate with 40 μL per well. After incubating the plate at 4° C. overnight, the plate was washed three times with 300 μL PBST. A blocking step was performed with 150 μL of 2% BSA in PBST per well and incubated for an hour at RT with gentle rocking. The existing blocking solution was then discarded form the plate. […] 30 μL of 3 μg/mL of FLAG-tagged GLUT1 or GLUT4 protein diluted in 2% BSA in PBST was then added to the appropriate wells containing antibody or control solution. The plate was incubated for an hour at RT with gentle rocking and then washed three times with 300 μL PBST. Afterwards, HRP-tagged anti-FLAG antibody was diluted to 1:4000 in 2% BSA in PBST, and 25 μL was added to all of the wells. The plate was incubated for an hour at RT with gentle rocking, and then washed with 300 μL PBST three times. To develop the plate, 50 μL of ABTS substrate was added to each well and incubated until a sufficiently high signal was achieved. The plate was read with a plate reader at an absorbance of 405 nm. Data was graphed using GraphPad Prism 8.0 software and IC50 values were generated using manufacturer instructions.

[6] = molecular target: interaction between Gal3 and GLUT4 (Homo sapiens, UniProt P17931); assay: Gal3-GLUT4 blocking ELISA; type: binding; conditions: antibody 3-fold dilutions
Sequence of interaction between Gal3 and GLUT4 (P17931 whole entry): as above
Protocol: as §1

[7] = tested on: L6 myoblasts; assay: Antibody internalization into skeletal muscle cells; type: cell-based, rat; conditions: with 2 or 10 μg/mL Gal3 or without Gal3, 3 hours
Protocol: It was tested whether anti-Gal3 antibodies were internalized into skeletal muscle cells. L6 myoblasts were seeded at a density of 10000 cells per well in a black clear bottom 96 well plate in L6 complete medium. The next day, the cells were serum starved using serum-free medium in the morning for 2 hours before proceeding with the following internalization experiment. […] The fluorophore-conjugated antibodies were then mixed with Gal3 protein (2 μg/mL or 10 μg/mL Gal3) or without Gal3 as control, and this mixture was added to the myoblasts. After 3 hours of incubation, fluorescent images of the cells were taken.

T1 sequence (P17931 2-250 limits assumed): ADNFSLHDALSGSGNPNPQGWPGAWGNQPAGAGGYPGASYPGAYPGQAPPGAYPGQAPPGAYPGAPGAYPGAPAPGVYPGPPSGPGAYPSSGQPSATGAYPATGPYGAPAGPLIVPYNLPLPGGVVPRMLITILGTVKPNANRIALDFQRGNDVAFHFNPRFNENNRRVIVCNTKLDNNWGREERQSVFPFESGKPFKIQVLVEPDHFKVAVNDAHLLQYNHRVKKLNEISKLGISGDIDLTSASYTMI

Row | Molecule | reduction of Gal3-INSR binding/assembly [1] | binding to Gal3 peptide 1 (amino acids 1-20, SEQ ID NO: 3) [2] | binding to Gal3 peptide 7 (amino acids 61-80, SEQ ID NO: 9) [2] | binding to Gal3 peptide 1 (SEQ ID NO: 3) [3] | binding to Gal3 peptide 6 (SEQ ID NO: 8) [3] | binding to Gal3 peptide 7 (SEQ ID NO: 9) [3] | binding to Gal3 peptide 8 (SEQ ID NO: 10) [3] | binding to Gal3 peptide 10 (SEQ ID NO: 12) [3] | effect on Gal3 block of insulin-stimulated GLUT4 translocation [4] | inhibition of GLUT1 binding to Gal3 [5] | inhibition of GLUT4 binding to Gal3 [6] | internalization of fluorophore-conjugated antibody into myoblasts [7]
1 | 15G7.2A7: anti-Gal3 antibody (antibody, 15G7.2A7 heavy chain peptide sequence; 15G7.2A7 light chain peptide sequence, anti-Gal3 antibody) heavy: EVQLQQSGPELVKPGASVKISCKASGYTFTDYYMNWVKQSHGKSLEWIGDINPNNGGTNYNQKFKGKATLTVDKSSSTAYMELRSLTSEDSAVYYCTSGYGFPYWGQGTLVTVSAASTKGPSVFPLAPCSRSTSESTAALGCLVKDYFPEPVTVSWNSGALTSGVHTFPAVLQSSGLYSLSSVVTVPSSSLGTKTYTCNVDHKPSNTKVDKRV[in this place human IgG4 Fc with S228P (EU numbers)] light: DIQMNQSPSSLSASLGDTISITCRASQNINIWLSWYQQKPGNIPQLLIYKASNLHTGVPSRFSGSGSGTDFTLTISSLQPEDIATYYCLQGQSYPLTFGAGTKLVMKRTVAAPSVFIFPPSDEQLKSGTASVVCLLNNFYPREAKVQWKVDNALQSGNSQESVTEQDSKDSTYSLSSTLTLSKADYEKHKVYACEVTHQGLSSPVTKSFNRGEC | greater than 99% | bound | bound | bound | bound | bound | bound | bound | – | – | – | –
2 | 2D10-VH0-VL0: anti-Gal3 antibody (antibody, 2D10-VH0-VL0 heavy chain peptide sequence; 2D10-VH0-VL0 light chain peptide sequence, anti-Gal3 antibody) heavy: QFQLQQSGPELVKPGASVKISCKASGYTFTDYYINWVKQRPGQGLEWIGWIYPGSNDTKYNEKFKGKATLTVDTSSSTAYMQLGSLTSEDSAVYFCANYFGCSGWFFDVWGTGTTVTVSSASTKGPSVFPLAPCSRSTSESTAALGCLVKDYFPEPVTVSWNSGALTSGVHTFPAVLQSSGLYSLSSVVTVPSSSLGTKTYTCNVDHKPSNTKVDKRV[in this place human IgG4 Fc with S228P (EU numbers)] light: DIVMTQAAFSNPVTLGTSASISCRSSKSLLHSDGITYLYWYLQRPGQSPQLLIYRMSNLASGVPDRFSGSGSGTDFTLRISRVEAEDVGVYYCAQMIEFPLTFGAGTILELKRTVAAPSVFIFPPSDEQLKSGTASVVCLLNNFYPREAKVQWKVDNALQSGNSQESVTEQDSKDSTYSLSSTLTLSKADYEKHKVYACEVTHQGLSSPVTKSFNRGEC | – | – | – | – | – | – | – | – | reduce the ability of Gal3 to block GLUT4 translocation | concentration-dependent ability | concentration-dependent ability | internalized into the myoblasts only in the presence of Gal3
